Laboratory results from PubChem BioAssay AID1240 (Sanford-Burnham Center for Chemical Genomics, 2008).
Out of some 50,000 compounds screened, about 800 (1.6%) showed an effect of 50% or more. The list shows a part of the results.

What follows are molecules tested against Bcl-2-like protein 10 (Homo sapiens) (UniProt Q9HD36) (assay: TR3 peptide-Bcl-B binding displacers, biochemical primary FP assay, phenotype converters (AID 1240;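 further: 0% = Bcl-B with tracer peptide and DMSO and 100% = tracer peptide lacking Bcl-B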)). Settings: GST-Bcl-B / FITC-TR3 peptide fluorescence polarization; stronger effect = higher value; compound at 3.75 mg/L.
Chain of UniProt Q9HD36 (Q9HD36 whole entry, looked up): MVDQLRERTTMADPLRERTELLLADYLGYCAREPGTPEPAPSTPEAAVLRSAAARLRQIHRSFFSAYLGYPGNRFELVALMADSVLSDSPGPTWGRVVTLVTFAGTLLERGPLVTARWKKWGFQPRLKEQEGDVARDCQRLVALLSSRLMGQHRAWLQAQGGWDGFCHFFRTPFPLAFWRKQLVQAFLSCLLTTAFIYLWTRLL
`Cc1ccc(NC(=O)COc2ccc3ccccc3c2)c([N+](=O)[O-])c1` gave a displacement of 8.1%. For `Cc1ccc(N(CCCCN2C(=O)c3ccccc3C2=O)C(=O)Nc2ccc([N+](=O)[O-])cc2)cc1`, the displacement was -1.6%. For `C[n+]1ccc(-c2ncc(-c3ccc(F)cc3)o2)cc1`, the displacement was 2.6%. In the case of `O=C(NC(=S)Nc1ccc(C(=O)N2CCOCC2)cc1)c1cccs1`, the displacement was -0.5%. With `Cc1ccnc(NC(=O)/C=C/c2ccc3c(c2)OCO3)c1` the displacement was -1.5%. `COC(=O)c1cc(C(=O)Nc2ccc(Cl)cc2Cl)cc([N+](=O)[O-])c1` showed a displacement of 0.1%. With `C=CCNC(=O)c1ccc(N2C(=O)c3ccccc3C2=O)cc1` the displacement was 18.6%. For `COc1cccc(N2C(=O)/C(=C/c3ccc(O)c(OC)c3)SC2=S)c1`, the displacement was -10.6%. `COC(=O)c1cccc(NC(=O)c2c(-c3ccccc3Cl)noc2C)c1` gave a displacement of -0.4%. In the case of `CC(C)(C)CC(C)(C)NC(=O)CSCC(=O)Nc1ccc2ccccc2c1`, the displacement was 7.5%. `Fc1ccccc1-n1nnnc1SCc1cc2c(cc1Cl)OCO2` was tested, and the displacement was -2.6%. For `CCOc1ccccc1NC(=O)c1cc([N+](=O)[O-])ccc1N1CCN(C)CC1`, the displacement was 14%. For `CCCCOC(=O)C1=C(C)N(C)C(=O)NC1c1ccc(O)c(OC)c1` (stereo not drawn), the displacement was 3.2%. In the case of `O=S(=O)(c1ccccc1)N1CCCc2ccccc21`, the displacement was -11.6%. In the case of `COc1ccc2c(c1)/C(=N/OC(=O)c1ccc(OC)c(OC)c1)CCC2`, the displacement was -7.2%. Molecule `CCCOc1cccc(C(=O)Nc2nc(-c3ccc(F)cc3F)cs2)c1` has a displacement of 0.3%. `Cc1cc(C)[n+]2cc(Br)ccc2n1` gave a displacement of 20.9%. `O=C(Nc1ccccc1C(F)(F)F)c1cnn2c(C(F)(F)F)cc(-c3ccccc3)nc12` gave a displacement of 7%. Work on `Cc1cc(C)cc(N2C(=O)NC(=O)/C(=C\c3ccc4c(c3)OCO4)C2=O)c1` yielded a displacement of -22.8%. Work on `CCOc1cc(C(=O)Nc2cccc(C(C)=O)c2)cc(OCC)c1OCC` yielded a displacement of 7.4%. For `COc1ccc(/C=C/C(=O)c2ccc3c(c2)OCCO3)cc1OC`, the displacement was 17.5%. Work on `Cc1ccc(C(=O)Nc2ccc(O)c(C(=O)O)c2)o1` yielded a displacement of 0.2%. Molecule `CCOc1cccc(-c2cc(C(=O)Nc3ccccn3)c3ccccc3n2)c1` has a displacement of 41%. `C=CCn1c(CSc2nc3sc4c(c3c(=O)[nH]2)CCCC4)n[nH]c1=S` gave a displacement of -7.3%. `COc1ccccc1NC(=O)c1c(O)c2ccccc2[nH]c1=O` gave a displacement of -1.5%. With `CCCCNC(=O)c1cc2n(n1)C(C(F)(F)F)CC(c1ccc(Cl)c(Cl)c1)N2` (stereo not drawn) the displacement was 0.5%. `Cc1cc(Cl)cc(Cl)c1OCCNC(C)(C)C` showed a displacement of 6.3%. With `CCCc1cc(=O)oc2cc(OCC(=O)c3ccc(F)cc3)ccc12` the displacement was 8.2%. `Cc1ccc(OCCCCN2CCC(C)CC2)c(C)c1` showed a displacement of -12.3%. In the case of `O=C(Nc1ccc(F)cc1F)c1cccc(I)c1`, the displacement was -14.8%. Molecule `CC(=O)Oc1cccc(C(=O)Nc2cccc(C(=O)c3cccc(C)c3C)c2)c1` has a displacement of 7.6%. `COC(=O)C1CC(=O)N(c2ccc(Cl)cc2)C1` (stereo not drawn) gave a displacement of 12.4%. Molecule `CN(C)c1ccc(NS(=O)(=O)c2ccccc2[N+](=O)[O-])cc1` has a displacement of 9.8%. Molecule `COc1ccc(C(=O)N2CCN(c3cccc(C)c3C)CC2)c(OC)c1` has a displacement of -4.4%. In the case of `COc1ccccc1C(=O)Nc1ccc(C)cc1[N+](=O)[O-]`, the displacement was -0.2%. Molecule `Cc1ccc(S(=O)(=O)Oc2ccc(/C=C3\SC(N)=NC3=O)cc2)cc1` has a displacement of -11.9%. Molecule `CC(=O)N(c1ccc(C)cc1)c1nc(-c2ccccc2)c(-c2ccccc2)s1` has a displacement of 5.7%. `COc1ccc(Cl)cc1NC(=O)C(=O)NCc1ccncc1` gave a displacement of -8.1%. Work on `COc1cc(-c2nnc(NC(=O)c3ccc(C(C)(C)C)cc3)s2)cc(OC)c1OC` yielded a displacement of -1.4%. Molecule `CCOC(=O)c1nnc2cc(-c3ccccc3)nn2c1C` has a displacement of -2.5%. In the case of `Cc1ccnc(NS(=O)(=O)c2ccc(NC(=O)C3CCCO3)cc2)n1` (stereo not drawn), the displacement was -6.1%. In the case of `Cc1cc(C)c(C=C2C(=O)c3ccccc3C2=O)c(C)c1C`, the displacement was -8.6%. With `CCOc1ccc(-c2cn3c4ccccc4n(CCN(CC)CC)c3n2)cc1` the displacement was -8.7%. Molecule `Cc1ccc(-c2cc(-c3ccccc3)nc(N/N=C/c3ccccc3O)n2)cc1` has a displacement of -4.1%. Molecule `CCOc1cc(CNCc2cc(OC)cc(OC)c2)ccc1OC` has a displacement of 5.1%. In the case of `N#CC1=C(N)Oc2cc(N)ccc2C1c1ccc(OCc2ccccc2)cc1` (stereo not drawn), the displacement was -21.1%. `O=C(CCc1ccccc1)Nc1cc([N+](=O)[O-])ccc1F` showed a displacement of -6%. `COC(=O)c1ccc(/C=C2\SC(=S)N(c3cccc(C)c3C)C2=O)cc1` was tested, and the displacement was 14%. With `Nc1cc(N)c(N2CCCCC2)cc1N1CCCCC1` the displacement was 1.6%. For `O=C(Nc1ccccc1C(=O)Nc1nccs1)c1ccccc1`, the displacement was -6%. Work on `COc1cccc2c3c(c(C)nc12)CC(C)S3` (stereo not drawn) yielded a displacement of -6.4%. In the case of `Cc1ccc(C(=O)Nc2nc(-c3ccccc3)cs2)cc1[N+](=O)[O-]`, the displacement was 6.2%. `C/C=C/COC(=O)C1=C(C)NC(=O)NC1c1ccc(Br)cc1` (stereo not drawn) gave a displacement of -2.1%. Molecule `CCN(CC)Cc1c(O)ccc2c(-c3ccccc3)cc(=O)oc12` has a displacement of -8.3%. Molecule `N#CC(=C1CCCCC1)c1nc(-c2cc3ccccc3oc2=O)cs1` has a displacement of 19%. `Cc1ccc(NC(=O)C(=O)NCCN2CCN(C(=O)c3ccccc3[N+](=O)[O-])CC2)cc1` showed a displacement of -0.2%. In the case of `CC(C)N/C=C/C(=O)c1ccc(Br)cc1`, the displacement was -7.1%. Molecule `Cc1c(NC(=O)c2ccc(-c3ccc(Cl)cc3Cl)o2)cccc1-c1nc2ncccc2o1` has a displacement of 9%. For `C/C(CC(=O)Nc1ccccc1Cl)=N\NC(=O)c1ccco1`, the displacement was -16.6%. `CCSc1nnc(NC(=O)c2ccc([N+](=O)[O-])cc2[N+](=O)[O-])s1` showed a displacement of 0.9%. Work on `CCOC(=O)N1CCN(C(=O)NC23CC4CC(CC(C4)C2)C3)CC1` yielded a displacement of -3.4%. In the case of `[O-][n+]1c2c(nc3c1-c1ccccc1C3O)CCCC2` (stereo not drawn), the displacement was -5.3%. Work on `Fc1cccc(CN2CCN(Cc3ccncc3)CC2)c1` yielded a displacement of -3.1%. Work on `O=C1NC(=Nc2cccc(Cl)c2Cl)S/C1=C\c1ccccc1` yielded a displacement of -3.6%. `O=C1c2cccc3c(Br)ccc(c23)C(=O)N1Oc1ccc([N+](=O)[O-])cc1[N+](=O)[O-]` gave a displacement of 11.8%. `C(=N/N1CCN(C(c2ccccc2)c2ccccc2)CC1)/c1ccccc1` was tested, and the displacement was -8.1%. Molecule `COc1ccc(C(O)P(=O)(OC(C)C)OC(C)C)cc1OC` (stereo not drawn) has a displacement of 12.2%. `Cc1ccc(-c2nc3ccccc3[nH]2)cc1NC(=O)Cc1ccccc1` showed a displacement of 8.8%. With `CCOC(=O)c1c(-c2ccccc2)csc1NC(=O)COc1ccc(Cl)cc1` the displacement was 5.2%. `O=C(Nc1ccc2c(c1)OCO2)c1nn2c(C(F)(F)F)cc(-c3ccco3)nc2c1Cl` was tested, and the displacement was -0.4%. Work on `O=C(NOC(=O)c1cccc(I)c1)c1ccc(Cl)cc1` yielded a displacement of 11.7%. Molecule `Cc1ccc(C2(c3ccc(C)cc3)CC2C(=O)Nc2ccccc2)cc1` (stereo not drawn) has a displacement of -2.9%. Molecule `COc1ccc(CN2CCN(C(=O)c3ccccc3F)CC2)cc1Br` has a displacement of -3.3%. For `CCCCCOC(=O)C1=C(C)NC2=C(C(=O)CCC2)C1c1ccc(OC)c(Br)c1` (stereo not drawn), the displacement was 8.9%. In the case of `COc1ccc(S(=O)(=O)N(CC(=O)O)Cc2ccccc2)cc1`, the displacement was 7.8%. `COc1cc(NC(=O)COc2ccc(C)c(C)c2)c(OC)cc1Cl` was tested, and the displacement was 0.4%. `COc1ccc(/C=C2\SC(=S)N(C(C)C(=O)O)C2=O)cc1` (stereo not drawn) showed a displacement of -0.2%. `CCCC(=O)Nc1ccc(NC(=O)c2ccc(OC)c(Br)c2)cc1` showed a displacement of 0.9%. In the case of `Oc1ccccc1C1=NCCNC(C(F)(F)F)=C1`, the displacement was 10.6%. With `NC(=O)c1cccc(S(=O)(=O)N2CCOCC2)c1` the displacement was -4.7%. `COC(=O)c1ccc(-c2ccc(/C=C3\C(=O)NN(c4ccccc4)C3=O)o2)cc1` showed a displacement of 3.5%. Work on `Cc1cccc(NC(=O)c2ccccc2N)c1C` yielded a displacement of -9.2%. Molecule `CCn1c2ccccc2c2cc(C3C(C(=O)OC)=C(C)NC4=C3C(=O)CCC4)ccc21` (stereo not drawn) has a displacement of 1.8%. In the case of `Cc1cc(NC(=O)CCc2ccccc2)ccc1NC(=O)CCc1ccccc1`, the displacement was 3.4%. `COc1ccc(OC)c(NC(=O)CN(c2cc(Cl)cc(Cl)c2)S(C)(=O)=O)c1` showed a displacement of -2.6%. Work on `Cc1cc2nc(-c3ccc(C)c(NC(=O)COc4ccc([N+](=O)[O-])cc4)c3)oc2cc1C` yielded a displacement of -54.1%. With `COc1ccc(-c2ccc(/C=C/C(=O)c3ccc(C)cc3)o2)cc1` the displacement was 91.1%. `COc1cc(/C=C2/SC(=S)N(C)C2=O)ccc1OC(=O)c1cccs1` showed a displacement of 14.9%. Molecule `COc1ccc(C(=O)N2CCN(Cc3cc(OC)c(OC)c(OC)c3)CC2)cc1OC` has a displacement of -11.9%. `CC1=C(C(=O)Nc2ccccc2)C(c2ccc(C)cc2)NC(=O)N1` (stereo not drawn) gave a displacement of -1%. For `c1ccc(-c2ccc(-c3nc(-c4ccccc4)no3)cc2)cc1`, the displacement was -5.4%. Molecule `COc1cc(C=O)c(Br)cc1OCc1ccc(Cl)cc1` has a displacement of 1.9%. In the case of `O=S(=O)([O-])C/C(=C\c1ccc(Cl)cc1)c1cc[n+](CCO)cc1`, the displacement was 3.9%. In the case of `COc1cc(/C=N\NC(=O)c2cccc(Cl)c2)ccc1OCCOCCOc1ccc(C)cc1`, the displacement was -7.7%. Molecule `O=C(O)/C=C\C(=O)N(c1ccccc1)c1ccc2ccccc2c1` has a displacement of 10.5%. `O=C(CCCN1CCN2CCCCCC2C1)c1ccc(F)cc1` (stereo not drawn) was tested, and the displacement was -1.3%. `COC(=O)c1cc(NC(=O)/C=C/c2ccccc2Cl)cc(C(=O)OC)c1` showed a displacement of -2.1%. Work on `COc1ccc(OC)c(C2/C(=C(\O)c3ccccc3)C(=O)C(=O)N2CCCCCC(=O)O)c1` (stereo not drawn) yielded a displacement of 3.4%. `CCc1ccccc1N/C(N)=N\c1nc(C)cc(C)n1` was tested, and the displacement was -4.5%. `COCCN1C(=O)/C(=C/c2cccc3ccccc23)SC1=S` gave a displacement of 6.1%. Molecule `CC1=C(C(=O)OC2CCCC2)C(c2ccccc2[N+](=O)[O-])C2=C(CC(C)(C)CC2=O)N1` (stereo not drawn) has a displacement of -6.2%. `Cc1cccc(C(=O)O/N=C(\N)Cc2ccc([N+](=O)[O-])cc2)c1` was tested, and the displacement was -11.2%. For `CCOc1cccc(/C=N/N2CCN(Cc3cccc4ccccc34)CC2)c1O`, the displacement was -8.1%. `Clc1cccc(-c2ccc(/C=N/n3cnnc3)o2)c1` showed a displacement of 5.2%. `COc1ccc(C2Nc3ccccc3NC3=C2C(=O)CC(c2ccc(Cl)cc2)C3)cc1` (stereo not drawn) was tested, and the displacement was -7%. Molecule `O=C(/C=C\c1ccco1)c1ccc(-n2nncc2C23CC4CC(CC(C4)C2)C3)cc1` has a displacement of -20.1%. `CCOc1ccc(N/C(=N\S(=O)(=O)c2ccc(NC(C)=O)cc2)Nc2nc(C)cc(C)n2)cc1` was tested, and the displacement was -5.8%. With `COC(=O)c1c(-c2ccc(C(C)(C)C)cc2)csc1N` the displacement was 5.7%.
